T1: UNK ZnF1-3 (human, UniProt Q9C0B0 31-174)
T1 sequence: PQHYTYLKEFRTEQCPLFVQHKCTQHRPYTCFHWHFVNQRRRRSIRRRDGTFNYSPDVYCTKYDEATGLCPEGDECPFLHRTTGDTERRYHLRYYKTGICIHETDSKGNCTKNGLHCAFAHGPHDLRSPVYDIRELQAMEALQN

B1: 19447899_19449338_9892_CDS_ENSG00000127481_ENST00000375254|human|control|control (ssRNA)
RNA: GGGAGUUCUACAGUCCGACGAUCACUGACUUGGAGGAGGAAGUACAGGACGGAGUCAUCUUUGAUGCAGAAUUUCUGCCAGUUGAUGGUUCGCUGGGCGGCAAUCUCUGCACAGGCUUUCAGGUGCUCCAUCAGGCUGAUGAGCAACAGAGGAUUGAGCAUCA
B2: 59577159_59578459_2520_CDS_ENSMUSG00000021557_ENSMUST00000164215|mouse|control|control (ssRNA)
RNA: GGGAGUUCUACAGUCCGACGAUCUUUUUGAAGAUGCAUCUGCAGAGUCGAGUACGUGUAUGGAUAGUGAUAGGCGAAAUAGCAGACAUCGUCCUUGUGCGGGAAGUUCACGGUGAAGGUGAUGGUGUAGUAGGACUUGCCCUUCAACAGAGGAUUGAGCAUCA
B3: 98288980_98289100_1136_CDS_ENSG00000180543_ENST00000322128|human|control|control (ssRNA)
RNA: GGGAGUUCUACAGUCCGACGAUCCUUGUCAGACUCAAUGGAGCUGUGGUUUGAAAACCACCCAAAGAAACUACGGUUGUUUUCUGGGUUUCCCUGGCUUAGGGACUGGAGAUCAUGCCCUGGGAGCCACUGGAUUGGAGUAGACAACAGAGGAUUGAGCAUCA
B4: chr14:89338683:89338684:+_ENSG00000165533_ENST00000346301|hu_hu|hu_hu_hu_mus_False|38_48 (ssRNA)
RNA: GGGAGUUCUACAGUCCGACGAUCGUGGUUGUUGUGGACCAGGGCCAGCCUGAAGCAUUGGUGGGCCAAGUUUGUAUCUCCGAUUCCCACAGCUACAUGUCCCAAGUUGUACCAGACAUCAGCUGCCUCUUCUUCAUUUUCAGCCAACAGAGGAUUGAGCAUCA
B5: chr11:29606814:29606815:+_ENSMUSG00000020458_ENSMUST00000102843|mus_mus|FALSE|FALSE (ssRNA)
RNA: GGGAGUUCUACAGUCCGACGAUCCACUUUAGUAAGGGUCGCAGGUGACUCUUGUGGAUUAUGAAGGGCUGCACUACAAACUAAAUCCUCUUUGUCUUUACUCCUCACAAUUACUUCUUCCUUAGUGUUUUCUACUAACAUGGCCAACAGAGGAUUGAGCAUCA
B6: chr2:178096726:178096727:-_ENSG00000116044_ENST00000397062|hu_hu|FALSE|FALSE (ssRNA)
RNA: GGGAGUUCUACAGUCCGACGAUCCAGUUUGGCUUCUGGACUUGGAACCAUGGUAGUCUCAACCAGCUUGUCAUUUUCAAUAUUAAGACACUGUAACUCAGGAAUGGAUAAUAGCUCCUCCCAAACUUGCUCAAUGUCCUGUUGCAACAGAGGAUUGAGCAUCA
B7: chr16:45382771:45382772:-_ENSMUSG00000022661_ENSMUST00000163230|mus_mus|mus_mus_mus_hu_True|78_78 (ssRNA)
RNA: GGGAGUUCUACAGUCCGACGAUCCUGGGUCAUGUUAUAAGACAAAUGGACAGGGAGAGCAUGCUUUUCAAAAAAUGUGAGCUAUUGUCUAAGACUAACAAUAUUUAUCUAGCUAUAAAAAUAAGUUAAAUGAAUAAGUUAAGACAACAGAGGAUUGAGCAUCA
B8: 54242455_54242575_5818_CDS_ENSMUSG00000061603_ENSMUST00000095737|mouse|control|control (ssRNA)
RNA: GGGAGUUCUACAGUCCGACGAUCGUCGUGCUUGGAUUCAGAAAUCUUUUUCACAUUUGAAGCAAGGUUCGCUGAUGCCUCUGGGAUCUCUGGCUUCUCCUUUUCUCUCUCUGGAGUACUUUCAACAUUGCCAUUUUCCAUGUCCAACAGAGGAUUGAGCAUCA
B9: chr10:59412704:59412705:-_ENSMUSG00000020108_ENSMUST00000020308|mus_mus|motif|central (ssRNA)
RNA: GGGAGUUCUACAGUCCGACGAUCCUGGCUGCAGCUCCCAGGUGUAAUUUUGUUUCAAGUGUCGAAGAUCCCGAAUGAUCCGGACACCCACCCCAUUCCUACUCUUACAUUCAUGCAGUCUGUAAGAUAGCUGCCUCGAACAGGCAACAGAGGAUUGAGCAUCA
B10: chr4:107087291:107087292:+_ENSMUSG00000028614_ENSMUST00000139560|mus_mus|FALSE|FALSE (ssRNA)
RNA: GGGAGUUCUACAGUCCGACGAUCUGCUUAGUCGUGUACCUUAAGAUUUCAAUUUUUCUACAUUCCUUUAUAUAGAGUUAACAUCUGUAAAUCGAGACUCUUUUUGGACAAUCAUGCAAAUUUAAUUUGUCCCUGGAAACAAAACAACAGAGGAUUGAGCAUCA
B11: chrX:123197699:123197700:+_ENSG00000101972_ENST00000371157|hu_mus|motif|central (ssRNA)
RNA: GGGAGUUCUACAGUCCGACGAUCUGUGUGCUUCUCUACAAUAUUUCGGAUCUGGCGCAAUAAGGCAUCCAAAUGCUUUUCGGAUCGUCCAGUGGUGUAUAUCUCCAAAUCAAAGUACUGAGGUAACUGCAACAAAUUGGUCACCAACAGAGGAUUGAGCAUCA
B12: chr15:102110757:102110758:+_ENSMUSG00000045665_ENSMUST00000051341|mus_mus|motif|central (ssRNA)
RNA: GGGAGUUCUACAGUCCGACGAUCGUAGGGAGCUUGGAGCCAGUCCGCUGCCAGGGCCAGAAAGUAGACUUGAUAGAAGUCGGGUUGAAACUGAAGGAAGGAGGGGUUGCUGCAAGCUCUUCCAGGGGGCCUGGCUCUGCAUCUCAACAGAGGAUUGAGCAUCA
B13: chr2:216981417:216981418:+_ENSG00000079246_ENST00000392132|hu_hu|hu_hu_hu_mus_True|1_108 (ssRNA)
RNA: GGGAGUUCUACAGUCCGACGAUCCUGAUACUGAUCCUUGCCAGCAAGGGCAUUAUCAGUGCCAUCUGUGCCAUAGAGGACUAACGCAAUCUCAUCUUUGCUCUCCGAAAAUACCUGUCGUUGGACAAACAUAGUCAUCACCUUCAACAGAGGAUUGAGCAUCA
B14: 25615947_25616067_1297_3pUTR_ENSG00000114062_ENST00000438097|human|control|control (ssRNA)
RNA: GGGAGUUCUACAGUCCGACGAUCUCCAUUUCUAGAACCUCAUUCAGUGGUUCAUUAAUAAACUCUUCAAAAGGGAUAAGUGGUUUUCGACAAUCCAGGGUUUUAACACCAAGUUCAGUUUCCAGGGGGUCCACUCGAGGACCUCAACAGAGGAUUGAGCAUCA
B15: 95310097_95310418_3252_CDS_ENSMUSG00000034088_ENSMUST00000170883|mouse|control|control (ssRNA)
RNA: GGGAGUUCUACAGUCCGACGAUCUACUCGAUCCAGUAGCCCCGCCUUAGCCCUGUCCAAAUUUGCUGCAAGGCCAGUGAUGGCGAUGGUGUCUGACUGCAGCUCGGGGGCUGGUACAUGGAUGUUCACCUCAAACUCAUCCAUCAACAGAGGAUUGAGCAUCA
B16: 66531988_66532108_1953_CDS_ENSMUSG00000025326_ENSMUST00000107537|mouse|control|control (ssRNA)
RNA: GGGAGUUCUACAGUCCGACGAUCUUCAAAGGAGAUAAGUGGUUUUCGACAGUCUAGAGUUUUAACGCCAAGUUCGGUUUCUAGUGGAUCCACUCGAGGACCUUUCUUAUUUCUUCUUUCAUCUCCCAGAAGCUCCUGAAGUGUCAACAGAGGAUUGAGCAUCA
B17: chr4:148551591:148551592:-_ENSMUSG00000063077_ENSMUST00000060537|mus_hu|mus_mus_mus_hu_False|8_68 (ssRNA)
RNA: GGGAGUUCUACAGUCCGACGAUCACCUGACAAAAUUAAAUAUCCCUGUAAAUUAGACAAUAAGCAGCAGGUAACAAAGUCUUUGCUUUGGAAUAUGUGCCAGGAAAAGUCAUCUUGUUUUUAGAUCACACCUUUCAGUUCACACAACAGAGGAUUGAGCAUCA
B18: chr13:99559765:99559766:-_ENSMUSG00000041685_ENSMUST00000040340|mus_hu|motif|central (ssRNA)
RNA: GGGAGUUCUACAGUCCGACGAUCCUGAACUUCCUUUAUUAAUUCUUGUAAUUUUCUAACAAGAUCCAAGUGACAAUUUGCGGAUUUCUCUGUAGAUGUUUUGAAUACAUCCCAUACUGGUGCAAAUGUUCCAAGUUGUGAAUACAACAGAGGAUUGAGCAUCA
B19: chrX:141883135:141883136:-_ENSMUSG00000041688_ENSMUST00000112835|mus_hu|motif|central (ssRNA)
RNA: GGGAGUUCUACAGUCCGACGAUCCUAUUAAUCUGGUUUCUAACUAAGACAUCCCAAAACCUCUACCCCCAACCCUUACCGGACACCCCCCACUUCCCUCACCCUCCCUAUACCCCUUAAAACUGAUCUUAAUGAUGCUAUCUGCAACAGAGGAUUGAGCAUCA
B20: chr7:17147909:17147910:-_ENSMUSG00000058230_ENSMUST00000075845|mus_hu|motif|central (ssRNA)
RNA: GGGAGUUCUACAGUCCGACGAUCCUUACGUUUGGCUGAAUAAAAAACAAUGUACCCAUGAACCAACCGGCUCUUUCUGAUGCGGAAGGAGGAAUGGUAUGAAAGAACAGACAGUUCAAUCCGCUUCUUGUGCAGUCCGAUUGGCAACAGAGGAUUGAGCAUCA
B21: 247054282_247055120_2089_CDS_ENSG00000153207_ENST00000391829|human|control|control (ssRNA)
RNA: GGGAGUUCUACAGUCCGACGAUCAUGAGAGAACCAAAGAACCACUUGUGCAUACUGACAGAUGAGGUGGGAAACCACAAACUUAUUGCUUAAGUCUAUCAGUCCUCUCUCAGUGAUCUCUCGGGCUUCUGAUGCAAAACAGCUCAACAGAGGAUUGAGCAUCA
B22: chr1:110121848:110121849:+_ENSG00000065135_ENST00000369851|hu_hu|motif|central (ssRNA)
RNA: GGGAGUUCUACAGUCCGACGAUCCCGUUUAAUCACUCCUGCUAGUUCUGGAGUCAUGACUCCUUCUUCAGCACUGCCAGCGGAAACAAAUAAUUGCCGGGCAUCAUCUGCCCUGGCAGCUUCCCCAAAGUCAAUCUUUAGCCGCAACAGAGGAUUGAGCAUCA

Some of the results follow.

For the experiment, the target named is T1, UNK ZnF1-3. The experiment is described as follows: nsRBNS (natural sequence RNA bind-n-seq); RBNS binding buffer (assumed for nsRBNS): 25 mM Tris pH 7.5, 150 mM KCl, 3 mM MgCl2, 0.01% Triton X-100, 500 ug/ml BSA, 20 U/ml SUPERase-In, 4 C; UNK is unkempt and MSI1 is Musashi-1; names of the RNAs are library labels; protein concentration not given here; high values mean tight binding.
Molecule B1 registered a binding signal of 1.03 enrichment R.

Molecule B2 returned a binding signal of 1.2 enrichment R.

Turning to B3, the binding signal was determined as 1.04 enrichment R.

Regarding B4, the binding signal stood at 0.783 enrichment R.

The molecule B5 displayed a binding signal of 0.763 enrichment R.

The molecule B6 gave a binding signal of 0.833 enrichment R.

With B7, the binding signal was found to be 2.03 enrichment R.

Regarding B8, the binding signal came to 0.413 enrichment R.

The molecule B9 displayed a binding signal of 0.965 enrichment R.

As to B10, the binding signal amounted to 0.829 enrichment R.

For B11, the binding signal was 1.15 enrichment R.

In turn, B12 had a binding signal of 1.16 enrichment R.

B13: the binding signal was determined as 0.739 enrichment R.

In turn, B14 displayed a binding signal of 1.32 enrichment R.

In the case of B15, the binding signal worked out at 0.78 enrichment R.

B16 had a binding signal of 0.628 enrichment R.

B17: the binding signal is 1.15 enrichment R.

With B18, the binding signal is 0.643 enrichment R.

As for B19, the binding signal came to 1.14 enrichment R.

In the case of B20, the binding signal is 0.986 enrichment R.

Consider B21, for which the binding signal turned out to be 1.34 enrichment R.

Take B22: the binding signal stood at 0.823 enrichment R.
